# Experimental data from the supplement of paper PMC3334620.
# In all, about 33,000 sequences were measured (“E-score (-0.5 to 0.5)”: median about -0.012, highest 2% from about 0.27 on). The list shows a part of the results.
# Target: T1, Vhr1 (UniProt P40522)
# T1 sequence: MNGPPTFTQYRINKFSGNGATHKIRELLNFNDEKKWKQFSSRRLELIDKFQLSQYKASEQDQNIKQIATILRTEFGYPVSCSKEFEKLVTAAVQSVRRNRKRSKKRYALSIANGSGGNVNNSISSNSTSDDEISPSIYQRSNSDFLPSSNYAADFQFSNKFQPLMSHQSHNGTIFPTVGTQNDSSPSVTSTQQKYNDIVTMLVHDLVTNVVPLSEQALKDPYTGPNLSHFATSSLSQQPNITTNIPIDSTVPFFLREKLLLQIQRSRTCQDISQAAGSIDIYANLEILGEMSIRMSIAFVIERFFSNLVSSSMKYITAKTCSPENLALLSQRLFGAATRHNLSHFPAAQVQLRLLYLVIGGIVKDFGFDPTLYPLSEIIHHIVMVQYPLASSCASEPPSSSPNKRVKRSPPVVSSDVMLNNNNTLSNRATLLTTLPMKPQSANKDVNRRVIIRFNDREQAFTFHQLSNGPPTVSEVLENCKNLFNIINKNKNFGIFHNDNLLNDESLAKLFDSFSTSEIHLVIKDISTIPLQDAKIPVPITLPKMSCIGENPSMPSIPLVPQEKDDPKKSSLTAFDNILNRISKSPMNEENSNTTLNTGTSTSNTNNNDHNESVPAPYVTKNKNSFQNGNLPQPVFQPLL
# Assay: PBM E-score (8-mer binding enrichment) (E-score (-0.5 to 0.5)); higher = stronger / more preferred TF binding; most listed sequences are background and not binding sites
# Details: protein concentration: 200 nM; construct: GST-full length
# How it was run: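 E-scores (a modified Wilcoxon-Mann-Whitney statistic) were assigned by the Universal PBM Analysis Suite to every ungapped eight-base word pooled with its reverse complement. The input came from universal all-10-mer Agilent arrays made double-stranded by primer extension and probed with GST-tagged yeast transcription factors at about 100-200 nM. Fluorescent anti-GST detected bound protein, and masliner normalised the scans.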
row,Sequence,PBM E-score
1,AGTTAACG,-0.121
2,TCGGTAGA,-0.118
3,CAGTCTAA,-0.0775
4,GTCGTTTA,-0.0687
5,AGATGATG,0.229
6,ACCCCAGT,-0.0732
7,CTTCCATA,-0.214
8,CAGGAAGG,-0.239
9,CAGGTAGA,-0.0896
10,GGCCGTTA,-0.0938
11,GGGGGGCA,-0.108
12,ACCGGCAC,0.0357
13,ACAGTGAG,0.116
14,CTTAGACC,-0.253
15,AATTACCT,-0.114
16,GGGCATTA,-0.205
17,CTTAGCTC,-0.0797
18,CCTTCCAC,-0.207
19,GCTCACTA,0.125
20,AAAATCTT,-0.316
21,AGAGGGAG,-0.106
22,GGAGTTAC,-0.00502
23,GACGATTA,-0.0227
24,CCGACCCG,-0.0837
25,GAAGACGC,-0.0862

row,Sequence,PBM E-score
1,CACCCCGG,0.0623
2,AATCACAC,0.316
3,AGGTTACT,0.0309
4,CAATATCA,0.0826
5,GTCAGAAC,-0.0558
6,CAGCGGAA,-0.0684
7,CTCAACAG,-0.13
8,CTATCTTA,-0.0603
9,GCTAAATA,-0.157
10,CCGGGTGC,-0.0457
11,CAAATGTA,0.0556
12,CCTGCTAC,0.0687
13,ACTCCGCA,0.0593
14,ACAGAACA,0.183
15,ATCACAGC,0.182
16,AATGGGCC,-0.0587
17,CCCTGATC,-0.0802
18,CTGTCATA,0.0334
19,ACCGGTCG,-0.119
20,CCCATCAC,0.198
21,CGAGAAGC,-0.115
22,GCGGAGTA,0.0654
23,ACCCGGGA,0.133
24,CACAATCG,0.153
25,GAAACAGC,-0.0915

row,Sequence,PBM E-score
1,CCGCTAAC,-0.104
2,TAGGCGCA,-0.0195
3,CCATGGCA,-0.018
4,GAGGGGAC,0.191
5,CGATTAAC,0.0474
6,CATTACCG,-0.103
7,ACAGACCG,0.183
8,ACACATCA,0.0839
9,CCCGTCTA,0.00077
10,AGGATTCG,0.0805
11,AGCTTCGA,-0.127
12,CATGAGTA,0.225
13,TCTGGACA,-0.0655
14,ACTGTCTC,0.0275
15,ACTTAAGT,-0.295
16,ACAGAGCG,-0.0964
17,ATTGTGCG,-0.0287
18,GCCCATGA,0.262
19,GCACGCCC,-0.0287
20,GAGTTTGC,0.0457
21,CTAAGCTC,-0.15
22,ACGGCCCT,-0.287
23,ATGGTGCG,-0.0561
24,CACTTAAG,-0.0463
25,AATGGCAG,-0.0191

row,Sequence,PBM E-score
1,AGGTGACA,0.0488
2,ACATAACA,0.0352
3,ATATTTGA,0.147
4,ATGCCTTA,-0.145
5,AGTCACCA,0.426
6,AATCATGT,0.389
7,GGTCCTCA,-0.209
8,ACCGTGCA,-0.115
9,AAAAACTC,-0.106
10,CCAGAATA,-0.035
11,AACATCTA,-0.152
12,CCAACTAA,0.0222
13,CACGGTCC,-0.118
14,CCACTTCA,-0.0055
15,ATTACTGC,0.206
16,GTAGAGAA,-0.118
17,AGCTCCCA,-0.0653
18,GCGATCGA,0.0608
19,ATCAAACG,-0.24
20,ACTTCGGC,0.0903
21,ATTGAAAA,-0.126
22,ATCCCGAT,0.121
23,GCTAATTA,0.0163
24,CAGATTCA,-0.232
25,ACCCTTCC,0.0544

row,Sequence,PBM E-score
1,GTGGTAAA,-0.123
2,GATTCTGC,0.113
3,CGCGGCCC,0.0527
4,GAGCTGAC,0.235
5,CTTTCATC,-0.205
6,TCATACGA,0.171
7,CGTTAGGA,0.0291
8,CGGTTTAA,-0.169
9,CACTATTA,0.13
10,CATCAGAC,0.246
11,ACGCCCAT,0.103
12,ACCCATGG,0.211
13,CGATATTA,0.171
14,CCATGAGG,-0.21
15,GCAGAAAA,-0.0271
16,CGGAAGAC,0.184
17,CTTTAGCA,-0.158
18,GCCTTAAA,-0.174
19,ACATGTGG,0.278
20,AAGTTGGA,-0.0396
21,GTTAGTGA,0.0216
22,AGAATTGA,-0.244
23,ACGTGTGC,-0.0314
24,AAAGTCGG,-0.203
25,AATGATCC,-0.0402

row,Sequence,PBM E-score
1,AGAACAAG,0.0641
2,AAGTAGCT,-0.251
3,GTTGTATA,0.0288
4,AAGAGGCA,0.0678
5,CCAAGCAA,0.136
6,CACGTGCC,-0.0472
7,AGTTAGAG,0.0903
8,CTGTTTCC,-0.185
9,AGCGGAAC,-0.0399
10,ATAGCGGA,-0.0723
11,GGACAATA,-0.00135
12,CTAGCTTA,-0.0946
13,AGAAAAAT,-0.139
14,ACTCGAGG,-0.0462
15,CCTTGCCG,-0.00503
16,GACAGCGC,0.00758
17,TTATCCAA,-0.0788
18,GACGGAAC,-0.0122
19,AGCAGTGG,-0.0474
20,AGGTCTGA,0.0434
21,CTGCGACC,-0.00159
22,AACGCCGA,0.00429
23,AGGAAATC,0.0336
24,ACGTTGCG,0.00783
25,CCACAAAA,-0.0265

row,Sequence,PBM E-score
1,CCCAACAC,-0.0212
2,ACTATAAT,0.227
3,CACTATGA,0.173
4,AGACTCTG,0.178
5,AAAAATGT,-0.194
6,GCCATAGC,-0.0742
7,CCTGTAAC,-0.0611
8,AAATCATC,0.245
9,AGGAATAC,-0.0219
10,TGGGGCAA,-0.186
11,CGGGTATC,0.0167
12,GCGGTCGA,0.0586
13,ATACACAG,0.257
14,GGGTTATA,0.097
15,CATAAAGC,-0.0901
16,CGCCAGAA,-0.00746
17,CATTCCAA,-0.0871
18,TTAGGAAA,-0.229
19,CTAGAAGA,-0.122
20,AAGCTCCA,0.111
21,ACCGGCCC,-0.0319
22,GATCCGGA,-0.214
